The campaign covered roughly 220,000 compounds. About 16,000 (7.3%) were called active. Inconclusive results, whose numbers are uncertain, are shown with a selection of clear calls. Calls follow the shape of the dose curve; as a rule, active = well fitted inhibition curve with a large enough effect (not every such curve was filed as active); inconclusive = small, poorly fitted or top-dose-only effect, or another doubt; inactive = no such curve, though single readings can be large or run the other way. Potencies of inconclusive entries are left out as doubtful fits. More than one record can exist for a structure, and the calls need not agree.
target: Aldehyde dehydrogenase 1A1 (Homo sapiens) (UniProt P00352); test: qHTS Assay for Inhibitors of Aldehyde Dehydrogenase 1 (ALDH1A1); details: Purified ALDH1A1, NADH fluorescence, propionaldehyde substrate; series mostly up to 75.3 µM
Potency is read from the fitted curve at half-maximal effect; tags tell the direction and shape of the fitted curve.

Sequence of UniProt P00352 (P00352 whole entry, looked up): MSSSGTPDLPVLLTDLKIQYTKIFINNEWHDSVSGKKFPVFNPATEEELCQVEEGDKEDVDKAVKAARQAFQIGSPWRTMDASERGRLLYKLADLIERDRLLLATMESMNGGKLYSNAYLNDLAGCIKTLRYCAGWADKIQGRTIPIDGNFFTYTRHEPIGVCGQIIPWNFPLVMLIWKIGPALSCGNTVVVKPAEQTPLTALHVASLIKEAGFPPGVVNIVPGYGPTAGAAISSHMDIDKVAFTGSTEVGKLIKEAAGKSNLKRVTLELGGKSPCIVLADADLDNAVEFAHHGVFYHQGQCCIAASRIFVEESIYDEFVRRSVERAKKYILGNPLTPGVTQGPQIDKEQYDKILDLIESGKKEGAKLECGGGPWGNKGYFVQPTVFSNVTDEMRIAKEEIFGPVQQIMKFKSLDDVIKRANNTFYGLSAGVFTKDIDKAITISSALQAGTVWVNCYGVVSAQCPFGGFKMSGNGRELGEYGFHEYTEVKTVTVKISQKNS

Structure (SMILES) | Potency
COc1ccc(OC)c(N2CC(O)=C(c3nc4ccccc4s3)C2=N)c1 | inconclusive [inhibitor, single point]
CCCCCCCC1CC(/C(C)=N/NC(N)=O)OC1=O (configuration not stated) | inactive
Cc1ccsc1/C=N/NC(=O)c1ccc2nc[nH]c2c1 | inconclusive [inhibitor, single point]
COCCOC(=O)C1=C(C)NC(=O)NC1c1c(Cl)nc2ccccn2c1=O (configuration not stated) | inconclusive [inhibitor, single point]
Cc1ccc(/C=N/n2cnc3sc(-c4ccccc4)cc3c2=O)o1 | active: 31.6 µM
CCCCC(=O)Nc1cccc(NC(=S)NC(=O)Cc2ccccc2)c1 | inconclusive [inhibitor, single point]
Cc1ccc(C(=O)N/N=C/c2ccc(N3CCOCC3)cc2)c(C)c1 | inactive
Cc1nc2ccc(C(=O)O)cc2c2c1CC(C)S2 (configuration not stated) | inconclusive [inhibitor, partial curve]
COc1cccc(Cn2c(=O)c(-c3ccc(Cl)cc3)nc3cnc(N4CCN(C)CC4)nc32)c1 | inconclusive [inhibitor, partial curve]
C[C@]12CC[C@@H]3c4ccc(O)cc4[C@@H](O)C[C@H]3[C@@H]1CC[C@@H]2O | inactive
Cc1nc2sc(C(c3ccco3)N3CCOCC3)c(O)n2n1 (configuration not stated) | inconclusive [inhibitor, single point]
O=Cc1ccc(OCC(=O)Nc2ccccc2-c2ccccc2)cc1 | inconclusive [inhibitor, single point]
Cc1nnc(SCC(=O)N2CC(=O)Nc3ccccc32)s1 | inactive
O=[n+]1cc(-c2ccc(Cl)cc2)n([O-])c2c1CCC2 | inactive
CCOc1ccc2[nH]c3c(N4CCc5ccccc5C4)ncnc3c2c1 | inconclusive [inhibitor, partial curve]
CN(C)c1ccc(C(=O)C(O)c2ccccc2)cc1 (configuration not stated) | inconclusive [inhibitor, single point]
CCOC(=O)NC(Nc1nc2ccccc2s1)(C(=O)OCC)C(F)(F)F (configuration not stated) | inactive
c1cn(CCCNc2ncnc3sc4c(c23)CCC4)cn1 | inconclusive [inhibitor, single point]
Cc1sc(NC(=O)c2oc3ccccc3c2C)c(C#N)c1C | inconclusive [inhibitor, single point]
O=C(NC(Cc1c[nH]c2ccccc12)c1nnc2n1CCCCC2)c1ccccc1 (configuration not stated) | inactive
Cn1c(CC(=O)Nc2ccccc2)nnc1SCC(=O)c1ccccc1 | active: 7.08 µM
COC(=O)c1c(-c2ccco2)csc1NC(=O)C1CC=CCC1C(=O)O (configuration not stated) | active: 12.6 µM
CC(C)Cc1nc2oc3c(NCC4CCCO4)ncnc3c2c2c1CCC2 (configuration not stated) | inconclusive [inhibitor, single point]
CC1N=C2c3ccccc3N=C(SCc3cc(=O)n4cc(Cl)ccc4n3)N2C1=O (configuration not stated) | inconclusive [inhibitor, partial curve]

Structure (SMILES) | Potency
CC(C)(C)C(=O)Cn1c(=N)n(Cc2ccccc2Cl)c2ccccc21 | inconclusive [inhibitor, single point]
Cc1ccccc1-n1c(-c2csc(C)c2C)n[nH]c1=S | inconclusive [inhibitor, single point]
O=[N+]([O-])c1ccc(Oc2ccc(S(=O)(=O)N3CCCCC3)cc2)cc1 | inconclusive [inhibitor, single point]
COCCN1Cc2cccc(C(=O)Nc3ccc(C)cc3)c2C1=O | inactive
Cc1c(Cc2ccccc2)c(=O)oc2cc(OCC(=O)c3ccccc3)ccc12 | inconclusive [inhibitor, partial curve]
CCN1CCc2nc3ccccc3c(C(=O)Nc3ccc(C#N)cc3)c2C1 | inactive
Cc1ccc(CN(C(=O)Cc2cccs2)C(C(=O)NC2CCCC2)c2ccncc2)cc1 (configuration not stated) | inconclusive [inhibitor, single point]
O=C(NCCC1=CCCCC1)c1ccc(CN2CCOCC2)cc1 | inconclusive [inhibitor, single point]
Cn1c(=O)c2c(nc(CN3CCN(c4ccccc4F)CC3)n2CCN2CCOCC2)n(C)c1=O | inconclusive [inhibitor, partial curve]
O=C(N/N=C/c1c[nH]c2ccccc12)C1COc2ccccc2O1 (configuration not stated) | inconclusive [inhibitor, single point]
CNC(=O)COC(=O)c1c2c(nc3ccccc13)CCC2 | inconclusive [inhibitor, single point]
O=C(CCCSc1nc2ccccc2[nH]1)N1CCN(c2ccccc2)CC1 | inconclusive [inhibitor, single point]
CCCn1nc(C(=O)N2CCc3ccccc3C2)c2ccccc2c1=O | inconclusive [inhibitor, partial curve]
O=C(N/N=C/C=C/c1ccco1)c1cccnc1 | inconclusive [inhibitor, single point]
CCn1c2ccccc2c2cc(NC(=O)C(C)Oc3ccc(OC)cc3)ccc21 (configuration not stated) | inconclusive [inhibitor, single point]
Cc1ccc(-c2cc(-c3ccccc3C)[nH]n2)c(O)c1 | inactive
OC(CSc1ccc(F)cc1)CN1CCN(c2ccccc2)CC1 (configuration not stated) | inactive
COCCn1c(SCC(=O)Nc2ccc(S(=O)(=O)N3CCOCC3)cc2)nc2ccccc21 | inconclusive [inhibitor, single point]
CCOC(CNC(=O)CCc1c(C)nc2nc(C)nn2c1C)OCC | inactive
Cc1nc2sc(C(=O)O)c(N)c2c2c1COC(C)(C)C2 | active: 14.1 µM
Cc1ccc(C2CC(c3ccco3)=NN2S(C)(=O)=O)cc1 (configuration not stated) | inconclusive [inhibitor, partial curve, poor fit]
CC1CCCC(C)N1S(=O)(=O)c1ccc(S(=O)(=O)NCCc2ccncc2)cc1 (configuration not stated) | inconclusive [inhibitor, single point]
COc1ccc(C2CC(=O)N3CN(c4ccc(C)c(Cl)c4)CSC3=C2C#N)cc1 (configuration not stated) | active: 3.16 µM
CN(C)c1ccc(C2C3=C(CCCC3=O)OC3=C2C(=O)CCC3)cc1 | inconclusive [inhibitor, single point]

Structure (SMILES) | Potency
Fc1ccc(N/N=C/c2ccc(N3CCOCC3)cc2)c(F)c1 | inconclusive [inhibitor, single point]
O=C(CNC(=O)c1ccc(Cl)cc1Cl)OCC(=O)c1ccc2c(c1)OCCO2 | inconclusive [inhibitor, single point]
CCOc1ccc2nc(-c3cc(NC(C)=O)ccc3O)sc2c1 | inactive
CSc1nsc(SC)c1C(=O)NCCNS(=O)(=O)c1ccc(C)cc1 | active: 25.1 µM
O=C(C1CCN(S(=O)(=O)N2CCCCC2)CC1)N1CCCCC1 | inconclusive [inhibitor, single point]
Cc1ccc(Cc2ccc(C(=O)NNC(N)=S)o2)cc1 | inconclusive [inhibitor, single point]
Cc1ccc(/C=N/n2c(C3CCCCC3)n[nH]c2=S)s1 | inactive
CCOC(=O)C1=C(C)NC(=S)NC1c1ccc(OC(=O)c2ccco2)cc1 (configuration not stated) | active: 2.24 µM
Cc1nc(-c2ccccc2)sc1-c1ccn[nH]1 | inconclusive [inhibitor, partial curve]
Cc1cc(C(=O)CSc2nc3ccccc3c(=O)[nH]2)c(C)n1C | inactive
CCCCCNc1nc(NCCCO)c(C#N)c2c1CN(C)CC2 | inconclusive [inhibitor, single point]
O=S(=O)(c1cccs1)N1CCCc2cccc(O)c21 | inconclusive [inhibitor, partial curve, poor fit]
CCOC(=O)c1cc2c(=O)n3ccccc3nc2n(CCCOC)c1=NC(=O)c1ccncc1 | inconclusive [inhibitor, partial curve]
CC1=CC(=C2C(=O)c3ccccc3C2=O)C=C(C)O1 | inconclusive [inhibitor, single point]
COc1ccc(CCNC(=O)CSc2nccc(=O)[nH]2)cc1OC | inconclusive [inhibitor, single point]
COc1ccc(/C=N/NC(=O)c2nonc2C)cc1 | inactive
COC(=O)c1cc(OC)c(OC)cc1NC(=O)CCCCCN1C(=O)CCC1=O | inactive
CC(C)(C)c1nnc2sc(SCC(=O)c3ccccc3)nn2c1=O | inconclusive [inhibitor, single point]
CN1CCN(c2ccc(C(=O)c3ccc(Br)cc3)cc2[N+](=O)[O-])CC1 | inactive
C=C(CC)C(=O)c1ccc(OCC(=O)O)c(Cl)c1Cl | active: 14.1 µM
CC(/C=C/c1ccco1)=N/NC(=O)c1ccccc1Cl | inconclusive [inhibitor, single point]
CC(=O)OC[C@H]1O[C@@H](O/N=C(\C)CCN2CCCCc3nc(C)c(C)cc32)[C@H](OC(C)=O)[C@@H](OC(C)=O)[C@@H]1OC(C)=O | inactive
CN1CCN(c2ccc([N+](=O)[O-])c(Sc3nc4ccccc4[nH]3)c2)CC1 | inconclusive [inhibitor, single point]
O=C(COc1ccc(S(=O)(=O)N2CCOCC2)cc1)Nc1ccc2c(c1)OCCO2 | inconclusive [inhibitor, partial curve, poor fit]

— PubChem BioAssay AID1030 (National Center for Advancing Translational Sciences (NCATS), 2008)
